The results in this text go back to article PMC4336329 (PLoS ONE, 2015).

The whole screen tested about 310,000 compounds, of which about 14,000 (4.5%) showed an effect of 50% or more. The effect is printed as a negative number. The list shows a part of the results.
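Further: peak tail current of the secondary pulse compared with the same well before compound.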

In the assay the target is human ether-à-go-go-related gene (hERG) potassium channel (human, UniProt Q12809). Kind of assay: primary screen, population patch clamp on CHO cells stably expressing hERG.
Chain of human ether-à-go-go-related gene (hERG) potassium channel (Q12809 whole entry, looked up): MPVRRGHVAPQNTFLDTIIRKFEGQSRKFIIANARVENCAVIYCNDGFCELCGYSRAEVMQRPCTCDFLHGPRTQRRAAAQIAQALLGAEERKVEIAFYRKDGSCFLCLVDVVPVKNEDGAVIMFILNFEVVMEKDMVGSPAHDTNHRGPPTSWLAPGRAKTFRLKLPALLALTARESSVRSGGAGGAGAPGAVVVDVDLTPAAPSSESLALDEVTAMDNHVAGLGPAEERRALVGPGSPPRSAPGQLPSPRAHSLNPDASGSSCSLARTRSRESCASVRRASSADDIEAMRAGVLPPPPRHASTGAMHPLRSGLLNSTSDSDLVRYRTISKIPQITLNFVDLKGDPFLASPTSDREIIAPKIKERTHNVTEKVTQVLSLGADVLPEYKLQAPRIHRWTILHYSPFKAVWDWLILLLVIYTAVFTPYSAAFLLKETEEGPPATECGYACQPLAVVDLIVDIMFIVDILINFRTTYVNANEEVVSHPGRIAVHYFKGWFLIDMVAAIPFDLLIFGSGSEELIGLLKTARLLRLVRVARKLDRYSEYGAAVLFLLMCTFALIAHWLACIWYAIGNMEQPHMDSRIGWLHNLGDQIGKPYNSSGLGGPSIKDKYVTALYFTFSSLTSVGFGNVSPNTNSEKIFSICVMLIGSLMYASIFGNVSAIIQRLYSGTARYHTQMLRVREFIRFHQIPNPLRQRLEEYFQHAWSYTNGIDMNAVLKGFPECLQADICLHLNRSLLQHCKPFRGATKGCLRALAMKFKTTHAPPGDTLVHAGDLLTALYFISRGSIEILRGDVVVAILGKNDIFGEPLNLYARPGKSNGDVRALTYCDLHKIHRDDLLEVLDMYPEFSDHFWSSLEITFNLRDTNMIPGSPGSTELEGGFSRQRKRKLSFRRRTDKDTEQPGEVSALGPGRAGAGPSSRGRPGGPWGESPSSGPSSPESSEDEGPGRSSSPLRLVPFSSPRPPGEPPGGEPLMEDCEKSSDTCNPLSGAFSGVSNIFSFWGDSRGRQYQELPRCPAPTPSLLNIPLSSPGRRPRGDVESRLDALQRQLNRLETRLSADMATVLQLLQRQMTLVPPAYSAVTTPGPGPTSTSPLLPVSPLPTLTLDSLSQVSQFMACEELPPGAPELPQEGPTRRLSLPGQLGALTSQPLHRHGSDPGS
Regarding `COc1ccc(CCCC(=O)NCCc2ccccc2)c(C)c1`, the “hERG current change (%, negative = inhibition) at 10uM” value came out at 11.2%.

With `Nc1[nH]ncc1N=Nc1ccc(Cl)cc1`, the “hERG current change (%, negative = inhibition) at 10uM” value was determined as 19%.

`C=CCn1c(SCc2ccccc2C#N)nnc1-c1cc(Br)ccc1O`: the “hERG current change (%, negative = inhibition) at 10uM” value is listed as -11.3%.

In the case of `COc1ccccc1-c1nc(C#N)c(N2CCCCCC2)o1`, the “hERG current change (%, negative = inhibition) at 10uM” value was -13.6%.

As to `Cl.OC(COc1ccc(Cl)cc1Cl)CN1CCc2ccccc2C1` (stereo not drawn), the “hERG current change (%, negative = inhibition) at 10uM” value is -58.6%.

For the molecule `CC(C)c1ccc(/C=C(\c2nc3ccccc3[nH]2)S(=O)(=O)c2ccccc2)cc1`, the “hERG current change (%, negative = inhibition) at 10uM” value is reported as 8.64%.

For `Cc1nnc(NS(=O)(=O)c2ccc(Br)cc2)s1`, the “hERG current change (%, negative = inhibition) at 10uM” value turned out to be 26.7%.

As to `COc1ccc(Cl)cc1NC(=O)[C@@H]1CCCN1C(=O)c1cccs1`, the “hERG current change (%, negative = inhibition) at 10uM” value was -6.75%.

With `COc1ccc(NS(=O)(=O)c2ccc(N3CCOCC3)c(NC(=O)c3ccc(OC)cc3)c2)cc1`, the “hERG current change (%, negative = inhibition) at 10uM” value is -1.38%.

On to `COc1ccccc1N1CCN(c2cc(C)nc3nc(C)nn23)CC1`, for which the “hERG current change (%, negative = inhibition) at 10uM” value is reported as -57.6%.

Turning to `CN1CCN(C(=O)C2CCC(C)(C(=O)O)C2(C)C)CC1` (stereo not drawn), the “hERG current change (%, negative = inhibition) at 10uM” value came to 4.09%.

For `CN1CCN(Cc2nc3ccccc3n2C)CC1CCO` (stereo not drawn), the “hERG current change (%, negative = inhibition) at 10uM” value is reported as 3.83%.

As to `Cc1cccc(CC(Cc2nc3ccccc3[nH]2)c2nc3ccccc3[nH]2)c1` (stereo not drawn), the “hERG current change (%, negative = inhibition) at 10uM” value is 3.08%.

Consider `O=c1cc[nH]c2cc(C(F)(F)F)ccc12`, for which the “hERG current change (%, negative = inhibition) at 10uM” value is reported as 20.8%.

For `CC(C)CNC(=O)c1cccc(NC(=O)c2ccccc2-c2ccccc2C(=O)O)c1`, the “hERG current change (%, negative = inhibition) at 10uM” value is -2.36%.

Take `CC(C)(C)c1ccc(S(=O)(=O)N2CCN(CC(=O)N3CC(=O)Nc4ccccc43)CC2)cc1`: the “hERG current change (%, negative = inhibition) at 10uM” value was -36.2%.

In the case of `CC1Cc2ccccc2N1C(=S)NC(=O)c1cccc(Br)c1` (stereo not drawn), the “hERG current change (%, negative = inhibition) at 10uM” value is listed as 10.7%.

For `CC1(C)Oc2ccc(C(=O)NC3CCCC3)cc2N(CC(=O)NC2CCCC2)C1=O`, the “hERG current change (%, negative = inhibition) at 10uM” value is given as -14.4%.

As for `COc1ccc(N2CCN(C(=O)Cc3ncc(C(F)(F)F)cc3Cl)CC2)cc1`, the “hERG current change (%, negative = inhibition) at 10uM” value was -51.9%.

Consider `CC(Oc1ccccc1)c1ccnn1S(=O)(=O)c1ccccc1` (stereo not drawn), for which the “hERG current change (%, negative = inhibition) at 10uM” value stood at 9.51%.

For the molecule `COc1ccccc1-c1nnc(SCC(=O)Nc2ccc3[nH]c(=O)[nH]c3c2)n1N`, the “hERG current change (%, negative = inhibition) at 10uM” value was 15.7%.

`C[C@H](NC(=O)c1nc[nH]c1C(=O)N[C@@H](C)C(=O)OCc1ccccc1)C(=O)OCc1ccccc1`: the “hERG current change (%, negative = inhibition) at 10uM” value is -11%.

Consider `COc1ccc(C(=O)NCCc2ccc(F)cc2)cc1OC`, for which the “hERG current change (%, negative = inhibition) at 10uM” value came to 10.4%.

In the case of `COc1ccccc1N1CCN(C(=O)COc2ccc(Cl)cc2Br)CC1`, the “hERG current change (%, negative = inhibition) at 10uM” value is listed as -18.1%.

`CCCS(=O)(=O)N1CCCC(C(=O)c2cccc(Cl)c2)C1` (stereo not drawn): the “hERG current change (%, negative = inhibition) at 10uM” value was determined as 3.88%.

`CC(C)(C)NC(=O)CSc1nc2scc(-c3ccccc3)c2c(=O)[nH]1`: the “hERG current change (%, negative = inhibition) at 10uM” value was found to be 13.7%.

In the case of `COc1cccc(C(=O)C2CCCN(Cc3c(C)n(C)n(-c4ccccc4)c3=O)C2)c1` (stereo not drawn), the “hERG current change (%, negative = inhibition) at 10uM” value was -21.2%.

With `O=C(CCCOc1ccc(Cl)cc1Cl)NNC(=O)C1CCC1`, the “hERG current change (%, negative = inhibition) at 10uM” value is given as 21.8%.

With `Cc1ccsc1/C=C1/NC(=O)N(Cc2ccc(F)cc2)C1=O`, the “hERG current change (%, negative = inhibition) at 10uM” value was found to be 1.98%.

For `S=C([S-])N1CCCC1.[NH4+]`, the “hERG current change (%, negative = inhibition) at 10uM” value is reported as 7.55%.

Consider `O=C(CSc1n[nH]c(-c2cccs2)n1)NCCc1ccccc1`, for which the “hERG current change (%, negative = inhibition) at 10uM” value is reported as -13.4%.

Take `COC(=O)C1CCN(C(=O)COC(=O)c2oc3ccc(OC)cc3c2C)CC1`: the “hERG current change (%, negative = inhibition) at 10uM” value is given as -17.3%.

On to `Cc1ccc(N(C(=O)c2ccc(Br)o2)C2C=CS(=O)(=O)C2)cc1` (stereo not drawn), for which the “hERG current change (%, negative = inhibition) at 10uM” value is -14.9%.

Turning to `CCCc1cc(=O)n2[nH]c(NCc3ccc(Cl)cc3Cl)nc2n1`, the “hERG current change (%, negative = inhibition) at 10uM” value is given as -33.1%.

With `O=C(CSc1nncs1)NCc1ccc2c(c1)OCO2`, the “hERG current change (%, negative = inhibition) at 10uM” value was found to be 0.561%.

Turning to `C#CC1(O)C=CC2C3CCC4=CC(=O)CCC4C3CCC21CC` (stereo not drawn), the “hERG current change (%, negative = inhibition) at 10uM” value was -2.88%.

Regarding `CCn1c(O)c(C=Nc2ccc(S(N)(=O)=O)cc2)c(=O)[nH]c1=S`, the “hERG current change (%, negative = inhibition) at 10uM” value was found to be 8.07%.

For the molecule `Cc1ccc(C)c(Cn2ncc3ccccc32)c1`, the “hERG current change (%, negative = inhibition) at 10uM” value was -2.98%.

For `COC(=O)c1nnc(-c2ccccc2)nc1OC`, the “hERG current change (%, negative = inhibition) at 10uM” value is -2.57%.

Consider `OCC[C@@H]1C[C@H](O)[C@@H](O)[C@]2(Cc3ccccc3CO2)O1`, for which the “hERG current change (%, negative = inhibition) at 10uM” value is listed as -0.333%.

Take `COC(=O)c1ccc(OC(=O)CCN2C(=O)C3C4c5ccccc5C(c5ccccc54)C3C2=O)cc1` (stereo not drawn): the “hERG current change (%, negative = inhibition) at 10uM” value is 2%.

As for `CCOC(=O)C1=C(C)Nc2ncnn2C1c1cccnc1` (stereo not drawn), the “hERG current change (%, negative = inhibition) at 10uM” value turned out to be 3.7%.

Turning to `CCCOc1ccc(NC(=O)CC2C(=O)N(CC)C(=S)N2CCCN2CCN(Cc3ccccc3)CC2)cc1` (stereo not drawn), the “hERG current change (%, negative = inhibition) at 10uM” value is given as -50.5%.

Regarding `O=C(/C=C/c1ccccc1Cl)NCCCn1ccnc1`, the “hERG current change (%, negative = inhibition) at 10uM” value is -17%.

As for `COc1ccc(OC)c(NC(=O)CN2C(=O)C(C)N(c3ccc(C)cc3)C2=O)c1` (stereo not drawn), the “hERG current change (%, negative = inhibition) at 10uM” value is recorded as -9.58%.

With `COc1ccc(-c2noc(Cn3cc(S(=O)(=O)N4CCCC4)ccc3=O)n2)cc1`, the “hERG current change (%, negative = inhibition) at 10uM” value was determined as 6.47%.

As to `COc1cc(NC(=O)Cc2ccccc2)ccc1NC(=O)c1ccco1`, the “hERG current change (%, negative = inhibition) at 10uM” value came out at 18.5%.

As for `O=C(C(=O)N1CCN(c2ccccc2)CC1)c1c[nH]c2ccccc12`, the “hERG current change (%, negative = inhibition) at 10uM” value is 4.09%.

Turning to `Cc1cccc2[nH]c3c(=O)n(CCN4CCNCC4)cnc3c12`, the “hERG current change (%, negative = inhibition) at 10uM” value is listed as -4.87%.

With `CN(CC(=O)Nc1ccc(F)cc1)C(=O)COC(=O)c1cc(S(=O)(=O)N(C)C)ccc1N1CCCC1`, the “hERG current change (%, negative = inhibition) at 10uM” value is listed as -24.2%.

`O=C1CC(c2ccc(F)cc2)SC(N(c2ccccc2)c2ccccc2)=N1` (stereo not drawn): the “hERG current change (%, negative = inhibition) at 10uM” value is 9.06%.

With `N#CC(c1ccc(F)cc1)c1ccc(C(=O)c2ccc(F)cc2)cc1` (stereo not drawn), the “hERG current change (%, negative = inhibition) at 10uM” value is reported as 5.17%.

As to `Cc1ccc(C(=O)N2CCCC(CCC(=O)NCc3ccccc3F)C2)cn1` (stereo not drawn), the “hERG current change (%, negative = inhibition) at 10uM” value is 13.1%.

Take `COc1cc2c(cc1OC)C(c1cc([N+](=O)[O-])ccc1O)NCC2` (stereo not drawn): the “hERG current change (%, negative = inhibition) at 10uM” value is on record as 27.6%.

On to `CCc1nnc(NC(=O)CSc2nc3cc(OC)c(OC)cc3cc2C)s1`, for which the “hERG current change (%, negative = inhibition) at 10uM” value is 5.07%.

In the case of `COc1ccc(OC)c(CCNC(=O)CCCc2nnc3n(C)c(=O)c4sccc4n23)c1`, the “hERG current change (%, negative = inhibition) at 10uM” value is on record as -1.15%.

On to `COc1ccc(Cc2nnc(SCC(=O)c3ccccc3)o2)cc1`, for which the “hERG current change (%, negative = inhibition) at 10uM” value is on record as -2.49%.
